Measurements published in PubChem BioAssay AID1918938 (Molecular Pharmacology Branch, DTP, NCI, 2023).
Some entries of the source have several records that differ or are many. This is not the full list of results. An entry can have further records. Values given together repeat one measurement across runs, samples, wells, individuals or studies. Counts like (3×) give the number of equal values in this list.

Test system: 556581-035-R-J1-PDC complex spheroid viability
Test: Anticancer human tumor 556581-035-R-J1-PDC patient-derived ovarian carcinoma cell line growth inhibition
Settings: for viability, T/C: stronger effect = lower value
Description: Multicellular complex tumor spheroid response to LSD1 Inhibitor Iadademstat in combination with a variety of drugs and investigational agents in selected tumor cell lines
The current study was undertaken to assess response to LSD1 inhibitors in combination with standard-of-care drugs and investigational agents in solid tumor complex spheroid models as well as in the K-562 leukemia. Complex spheroids include a stromal component modeled by human endothelial cells (HUVEC) and fibroblasts modeled by human mesenchymal stem cells (MSCs). The concentration ranges selected for each drug and investigational agent were based upon clinically achievable concentrations if the clinical Cmax of the agent was known.
Compounds. The drugs and investigational agents used in this study are listed on Table 1. All of the agents used, including staurosporine (NSC755774) and gemcitabine (NSC613327), were obtained from the Developmental Therapeutics Program, NCI. FDA-approved anticancer drugs are available from the NCI at http://dtp.nci.nih.gov/branches/dscb/oncology_drugset_explanation.html. Drugs and investigational agents were >95% pure by proton nuclear magnetic resonance (NMR) and liquid chromatography/mass spectrometry (LC/MS). Stock solutions were prepared at 400x in DMSO, stored at -70 degrees C, and diluted in fresh medium prior to their use. The final concentration of DMSO in cell culture wells never exceeded 0.25% (v/v). The FDA-approved anticancer drug set is available from the Developmental Therapeutics Program at https://dtp.cancer.gov/organization/dscb/obtaining/available_plates.htm. All drugs and investigational agents were tested over a range starting from a high concentration at or near the clinical Cmax and decreasing in half-log increments. If the clinical Cmax for an agent had not been determined, the highest concentration tested was 10 microM.
Cell Lines. The patient-derived cancer cell (PDC) lines: 292921-168-R-J2-PDC, K24384-001-R-PDC, and 521955-158-R2-J5-PDC pancreatic carcinomas, 556581-035-R-J1 ovarian carcinoma, 324938-238-R-J1-PDC, 855422-203-R-J1-PDC and 883617-216-R-J1-PDC urothelial bladder carcinomas, 743489-274-T-PDC renal cell carcinoma, 138582-R-J1 Merkel cell tumor, K60290-347-R-J1 and K57222-313-R-J1-PDC glioblastomas, 653999-131-R-J2-PDC, LG0703-F948-PDC, and 349418-098-R-PDC non-small cell lung carcinomas, 885512-296-R-J2-PDC, 171881-019-R-J1-PDC breast carcinomas and 186277-243-T-J2-PDC and 233499-124-R-J2-PDC colon carcinomas were obtained from the NCI Patient-Derived Models Repository (PDMR, https://pdmr.cancer.gov). The established cell lines NCI/ADR-RES (RRID:CVCL_14520 and OVCAR-5 (RRID:CVCL_1628) ovarian carcinomas, 786-O (RRID:CVCL_1051) and A498 (RRID:CVCL_A498) renal cell carcinoma, NCI-H211 (ATCC, cat. CRL-5824; RRID:CVCL_1529), NCI-H196 (ATCC, cat. CRL-5823, RRID:CVCL_1509), SW 1271 (ATCC, cat. CRL-2177, RRID:CVCL_1716) and NCI-H1876 (ATCC, cat. CRL-5902, RRID:CVCL_1503) small cell lung carcinomas, MDA-MB-231 (RRID:CVCL_0062) and MDA-MB-468 (RRID:CVCL_0419)breast carcinomas (10-12). Pooled donor human umbilical vein endothelial cells (HUVEC, Lonza, cat. CC-2519) and human mesenchymal stem cells (hMSC, Lonza, cat. PT-2501) were purchased from Lonza (Walkersville, MD).
Cell Culture. All cells were maintained in an incubator at 37 degrees C and 5% CO2 with 95% humidity. The PDC lines were cultured according to standard operating procedures established by the NCI PDMR (https://pdmr.cancer.gov). Briefly all PDCs were thawed and cultured in Matrigel-coated flasks prepared with a working solution of 1X Ham's F-12 nutrient mix, without supplementation (Invitrogen, Waltham, MA, cat. 11765054), 100 U/mL penicillin-streptomycin (Invitrogen, cat. 15140122), and 2.5% Matrigel (Corning Inc., Corning, NY, cat. 354248) for the first three passages. […]
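Also: spheroids exposed to agents for seven days.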
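For viability, T/C in this document: 100% = DMSO vehicle control wells.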

SMILES	viability, T/C (compound alone 0.1 µM)	viability, T/C (compound alone 1 µM)	viability, T/C (compound alone 3.16 µM)	viability, T/C (compound alone 10 µM)	viability, T/C (compound alone 0.316 µM)	IC50 (compound alone)
NC1CCC(NC2CC2c2ccccc2)CC1 (centres undefined)	81.3, 104 (2×), 83.6, 101, 82.9, 88, 103, 92.1, 74.6, 91.9, 85.4, 96.5, 94.1, 91.6, 96.1, 87.8, 88.8, 84.9, 84.2 (2×), 102 (2×), 93.3, 91.7%	78.6, 97.8, 85.1, 83.6, 87.8, 80.8, 90.9, 86.3, 71.8, 79.2, 88.2, 93.8, 90.5, 82.9, 92.9, 81.3, 86.8 (2×), 87.9, 81.9, 81.1 (2×), 80, 87.3, 83.8%	75.1, 80.2 (2×), 93.4, 90.7, 79.5, 73.7, 95, 79.3, 83.3, 78.3, 84.3, 77.7, 66.1, 77, 82.5, 84.6, 86.7, 86.5, 81.7, 79.2, 83.2, 89, 83.6, 78.1%	70.1, 85.1, 87.8, 75.7, 72.4, 72.6, 91.8, 63, 70.4, 79.8, 77.2, 64.5, 75.4 (2×), 88, 66.9, 85.8, 81.4, 70.6, 70.8, 73.7, 73.4, 68.7%	–	–
NC1CC1c1ccc(-c2cccc(O)c2)cc1 (centres undefined)	–	85.9, 90.7, 90.1 (2×), 99.1 (2×), 83.7, 93, 84.1, 80.9, 85.2, 79.3, 98.9, 89.7, 90.4, 75.7, 100, 87.4, 102, 91.1, 95.9, 92.1, 84.2, 78.4%	–	82.5, 85.9, 105, 89, 94, 87.6, 91, 85.1, 85.8 (2×), 81.7 (2×), 79.1 (2×), 90.2, 90.7, 88, 93, 80.7, 69.5, 83, 85.4, 80, 84%	83.8 (2×), 76.5, 91.7, 95.7, 94.8, 91.2, 87.6, 93, 95, 90.2, 88.3, 90, 79.8, 95.6, 72.4, 79.7, 84.7, 86.2, 99.9, 79.2, 95.1, 84.1, 90.8%	–
COc1cc(Nc2ncc3c(n2)-c2ccc(Cl)cc2C(c2c(F)cccc2OC)=NC3)ccc1C(=O)O	–	–	–	–	–	309 nM and 15.2 nM
O=C(C=Cn1cnc(-c2cc(C(F)(F)F)cc(C(F)(F)F)c2)n1)NNc1cnccn1	–	–	–	–	52% and 10.9%	–
